Data: the supplement of paper PMC10126150
Sequences with one replicate were seen in a single cluster, so their values are uncertain.

Test system: ATP
Assay: switch fluorescence ratio, 500 uM ATP over buffer (Cy3 cluster intensity, sum of 5 cycles each) (fold (ratio)); higher = stronger signal-on switching upon ATP binding; sequences stand for … in TCGTCGGCAGCGTCAGATGTGTATAAGAGACAGTTTTTTTTTTTTTTTTTTTTTTTTT…TC
Conditions: aptamer strand: ATP DNA aptamer (quencher-CACCTGGGGGAGTATTGCGGAGGAAGG + anchor), 100 nM annealed; ATP concentration: 500 uM; one replicate
Outline: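 For every switch-domain sequence, the fluorescence ratio is the mean of per-cluster values, each being summed target-cycle Cy3 intensity over summed buffer-cycle Cy3 intensity. Clusters outside 100-1000 RFU were excluded. On a modified Illumina MiSeq flow-cell, the Cy3-labelled switching-strand clusters were annealed to 100 nM quencher-labelled ATP aptamer, imaged in selection buffer and then after 15 min with 500 uM ATP at 22 °C. Five such cycles were run, with NaOH stripping and re-annealing between them.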
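Also: ATP exposure 15 min at 22 °C before imaging.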

Sequence | switch fluorescence ratio
GCGAAAAACT | 3.92
GCGGTCATTA | 0.965
TTGGTTGAT | 0.997
AGTCGTTCCG | 0.977
ACCACGGAAT | 1.11
TACTTGGTAT | 0.989
CCAGCGAAAG | 1.06
GGTAGCGTTC | 1.06
CATAGATAAT | 1.07
ACGGGTCATT | 1.01
CTGAGAAGCG | 0.978
GCCGGGTACT | 0.999
ACCACACGGA | 1.51
TCGGGGAGGT | 0.953
GGAAGGGAAT | 1.02
AGTATCCGCT | 0.969
GGCATACCAC | 1.09
ACTAGAGTGT | 1.01
ACATAGGCTT | 1.01
TAAAAGTTGT | 0.971
AGGGAATTTT | 0.951
TTTGGTCATT | 0.999
GGGTCTGATA | 0.96

Sequence | switch fluorescence ratio
AGGTCCGCTG | 1.02
CGGTCCAGGG | 1.2
TATATAATAG | 0.985
GTTATGACTG | 0.972
CTAAACACTT | 0.997
TATAGAGTTG | 1.04
GCGCCGCGGT | 1.37
GTAATTGTTG | 0.956
TGTTGGTAGT | 1.03
TTTAATACCT | 1.02
CTTCGCCGGC | 1.12
TCTATCCGG | 0.996
CGGTCGTACT | 0.988
TTCAGTGGG | 0.993
ACTGGAAACC | 1.14
GTTGCGGCCG | 0.897
GACCAACAC | 1.42
CGTATCAAGG | 1.01
GCGTTCCAAT | 1.02
GACACACCGT | 1.27
GTTTGGTAC | 1.03
TACGGTTCAC | 1.11
TCCAGGACGG | 1.03

Sequence | switch fluorescence ratio
GTATGTGGAG | 0.982
GAGCGATGGG | 0.973
TAGGGCAGCA | 0.965
GAAGGTGTTC | 1.04
TCGTACATCA | 1.06
ATTTAAGAGC | 0.975
TTACTTGCG | 1.01
GAGCTTGGAG | 1.02
GGTTATGTAC | 1.04
GCTGCTGAAC | 1.13
CCATTACCGA | 0.998
TTTGGTACCT | 1.07
AGACGAGCTG | 0.965
TCCGACCGCT | 1.01
AGCGAGAAAA | 1.06
CTGTTATGGG | 0.971
AAAAGGGG | 1.06
CTTCGATAAG | 1.02
GCCCCCGATG | 1.46
GCTGTGTAGC | 0.985
TAGCTGTT | 0.981
GCCACGCATA | 1.16
TCCACATACG | 2.91

Sequence | switch fluorescence ratio
CGGATGTATG | 1.01
TGAAAGTATG | 1
ACCTCTAGTT | 1.05
TACGGAACGT | 1.04
TAAGATGGAA | 1.01
TACGTGGGCG | 0.917
AGCATATT | 1.45
CCGGGCAGCT | 1.43
TATGAATCTC | 0.989
CATGATCGCC | 0.976
GAGGCAATG | 2.89
CCCATGCTTT | 1.06
ACCCTTTGCC | 1.05
GCGCTGGG | 1.05
GAAATCCCGG | 0.909
TTTCTCGAT | 1.08
ATTGGGCGTG | 1
AACGCATATC | 3.36
CCAGGGACC | 1.03
AAAGGTAAG | 1.01
GAGCTGGACT | 1.07
GGCGCCCGGC | 0.997
ACTTTGGCAG | 1.02

Sequence | switch fluorescence ratio
GAGAGGCGAG | 1.02
AATCCACTTC | 1.03
AGCATACTTA | 1.19
GGAACGCCGA | 1.05
TATAGACGAG | 1.05
AATATTAGAC | 0.979
AGACTTAGCG | 0.928
GCGTGGCCTA | 0.959
CTCTGAGCAA | 3.06
TATGAGGTTA | 1.03
CATGCCTGTG | 1.03
TCGATGACGA | 1.05
GCTAATGATC | 1.03
TTCCGCTGAG | 2.07
CAACTATGGA | 0.982
ATGGTAAGTC | 0.998
ATGTATGTG | 0.962
ATTAGCTGGA | 0.917
AGAGGGGA | 0.99
TAAGACGGTG | 1.02
AGATGAGGTA | 0.993
AAAGCTCCGT | 1.07
AGGTTGCGTC | 1

Sequence | switch fluorescence ratio
GCAGAAGCTT | 1.04
TTCGGGTTGT | 0.972
GACCACATAG | 1.01
TGCAATTTGA | 1.02
CAACTAATA | 1.04
TGACATCTAC | 1.39
TATTGAACTC | 1.05
AAAGCGGCG | 0.991
ACATTGAAGT | 1.02
TTTTCGACTC | 1.03
GCGGAGGATG | 1.02
CCTTTGGGTT | 0.974
AAGTCGTGTT | 1.17
GGGGGCTTCC | 1.49
TCGGCCCATA | 1.08
CTCGGTAGAC | 1.72
TGAGTATTGT | 1
CGGTTGCCCA | 1.04
GTAGGTTAGA | 1.05
TCCGGGTTTC | 2.12
TTCTGGCCAG | 1.01
CGGATATCCC | 0.972
CATGGCGAGC | 0.986

Sequence | switch fluorescence ratio
GCAATTAGTC | 1.56
GGCGACCCGG | 1.04
AAGCTAATCG | 0.989
GCGTCGGAAA | 1.44
AATAACGGTA | 1.03
ATAATCTGAA | 0.999
AGCTCTGCAG | 1.19
TTGTGTGTGA | 1.12
CGTATCCATA | 1.01
TGCATTTGGC | 0.992
CGCAGTTTCG | 1.07
CTACTACACA | 1.36
TTTGGCTCTT | 0.971
ATTATACGCG | 1.04
CAGTCACTGA | 1.07
GCCTATGCTA | 1.06
CAAAGTTCGT | 0.998
GCTGCAGCTT | 0.983
GTGGGAGATG | 0.996
TTTTTGACGT | 1.04
